The campaign covered roughly 340,000 compounds. About 12,000 (3.5%) were called active. Inconclusive results, whose numbers are uncertain, are shown with a selection of clear calls. Calls follow the shape of the dose curve; as a rule, active = well fitted inhibition curve with a large enough effect; inconclusive = small, poorly fitted or top-dose-only effect, or another doubt; inactive = no such curve, though single readings can be large or run the other way. Potencies of inconclusive entries are left out as doubtful fits.
assay: qHTS Assay for Inhibitors of Hepatitis C Virus (HCV); conditions: Huh7.5.1 HCVcc-Cre (HCVcc is cell-culture hepatitis C virus) infection, luciferase reporter, 44 h; activity change, negative = inhibition: at 41.8 µM (top of the series) unless noted
Outline: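 Cells (1,000/well) were plated 4 h before compound, then infected with HCVcc-Cre virus (~0.5 moi). After 44 h further culture, infection was read as luciferase luminescence following a 15 min substrate incubation at room temperature.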
% is scaled to controls: 0 for no effect and ±100 for the full control effect; potency is read from the fitted curve at half-maximal effect; tags tell the direction and shape of the fitted curve.

| SMILES | Potency | activity change, negative = inhibition |
| --- | --- | --- |
| CCCCC(=O)Nc1cccc(-c2nnc(-c3ccccc3)o2)c1 | inconclusive [inhibitor, partial curve, poor fit] | – |
| O=C(NC(=S)Nc1ccc2cn[nH]c2c1)c1ccccc1 | inconclusive [inhibitor, partial curve, poor fit] | – |
| Cc1cccc(-n2cc(CNCCc3nc(C)cc(C)n3)c(-c3cccc(F)c3)n2)c1 | inconclusive [inhibitor, single point] | – |
| CON(C)c1nc(OCCNC(=O)OCc2ccc(Cl)cc2Cl)nc(N(C)C)n1 | inconclusive [inhibitor, single point] | – |
| Cc1coc2cc3oc(=O)c(CCC(=O)NCCN4CCOCC4)c(C)c3cc12 | inconclusive [inhibitor, partial curve] | – |
| CC(C)=CCC[C@](C)(O[C@@H]1O[C@H](CO[C@@H]2OC[C@H](O[C@@H]3OC[C@@H](O)[C@H](O)[C@H]3O)[C@H](O)[C@H]2O)[C@@H](O)[C@H](O)[C@H]1O)C1CC[C@]2(C)C1[C@H](O)CC1[C@@]3(C)CC[C@H](O)C(C)(C)C3[C@@H](O)C[C@]12C (stereo partly specified) | – | inactive: 4.2% |
| COc1ccc(Br)cc1C(=O)Nc1ccc(C(=O)O)cc1 | inconclusive [inhibitor, single point] | – |
| CCN(CC)CCCNC(=O)c1cc2c(-c3cccc(OC)c3)nn(C)c2s1 | active: 11.2 µM | – |
| N/N=C(\Cc1cscn1)c1ccc(O)cc1O | – | inactive: -1.6% |
| CCC(Sc1nc2n[nH]c(C)c2c(=N)n1-c1cc(Cl)ccc1C)C(=O)N1CCOCC1 (stereo unspecified) | inconclusive [inhibitor, single point] | – |
| CCC(=O)NC(=S)Nc1ccc(N2CCN(C(=O)c3ccc(Cl)cc3)CC2)cc1 | inconclusive [inhibitor, single point] | – |
| Cc1c(C(=O)Nc2ccccc2)c2cc(O)ccc2n1Cc1ccccc1 | – | inactive: -21.1% |
| O=C(COC(=O)Cc1ccc([N+](=O)[O-])cc1)NC1CCCCCC1 | – | inactive: 23.3% |
| CCC(=O)Nc1ccc(C(=O)N/N=C/c2c(C)[nH]c3ccccc23)cc1 | inconclusive [inhibitor, single point] | – |
| CCOc1nc(C)ccc1-c1noc(-c2ccccn2)n1 | inconclusive [inhibitor, full curve, poor fit] | – |
| Cc1ccc(C(=O)NCC(=O)Nc2ccc(S(=O)(=O)Nc3cc(C)nc(C)n3)cc2)cc1 | – | inactive: -1.65% |
| O=C(/C=C/c1cccc([N+](=O)[O-])c1)Nc1cccc(NC(=O)c2cccs2)c1 | inconclusive [inhibitor, full curve] | – |
| O=C(CN1C(=O)S/C(=C/c2ccccn2)C1=O)N1CCOCC1 | inconclusive [inhibitor, single point] | – |
| COc1ccc(-c2csc(NC(=O)CSc3nc(SC)ns3)n2)cc1 | inconclusive [inhibitor, single point] | – |
| CCSc1ccc(C(=O)Nc2cccc(C)n2)cc1[N+](=O)[O-] | inconclusive [inhibitor, partial curve] | – |
| CC1CCCCN1C(=O)CSc1nc(C2CC2)nc2c1cnn2-c1ccccc1 (stereo unspecified) | inconclusive [inhibitor, single point] | – |
| O=C(CCc1nnc2ccc(NCc3ccco3)nn12)N1CCN(c2ccccc2F)CC1 | – | inactive: -5.46% |

| SMILES | Potency | activity change, negative = inhibition |
| --- | --- | --- |
| O=C(NCCc1ccccn1)c1ccc(NS(=O)(=O)c2ccc(F)cc2)cc1 | inconclusive [inhibitor, single point] | – |
| Cc1cc(C)n(-c2ccc(C(=O)Nc3ccc4c(c3)OCO4)cc2)n1 | inconclusive [inhibitor, partial curve] | – |
| C=CCOc1ccc(CN(C)CC(O)COc2ccc(CCC(C)=O)cc2)cc1 (stereo unspecified) | inconclusive [inhibitor, full curve, poor fit] | – |
| Cc1ccccc1CN1C[C@@H]2C[C@@H](c3cn[nH]c3-c3ccc(F)cc3)N3CCC[C@@]23C1=O | inconclusive [inhibitor, single point] | – |
| CCC(=O)c1ccc(OCC(=O)NCc2ccccc2CN2CCCC2)cc1 | inconclusive [inhibitor, partial curve] | – |
| CC(=O)c1sc(NC(=O)CCS(=O)(=O)c2ccccc2)nc1C | active: 12.6 µM | – |
| COc1ccc(NC(=O)CSc2nnc(COc3ccccc3)n2Cc2ccco2)cc1OC | inconclusive [inhibitor, single point] | – |
| COc1ccc(S(=O)(=O)NC2CCSc3ccccc32)cc1OC (stereo unspecified) | – | inactive: 14.6% |
| O=C(Nc1nc(-c2ccc(S(=O)(=O)N3CCCC3)cc2)cs1)c1cccs1 | inconclusive [inhibitor, partial curve] | – |
| O=C(Cc1ccccc1)Nc1c[nH]c(=O)[nH]c1=O | – | inactive: 0.426% |
| N#Cc1cc([N+](=O)[O-])ccc1N1CCN(c2ccccc2O)CC1 | inconclusive [inhibitor, single point] | – |
| Clc1cccc(-c2csc(Nc3cccnc3)n2)c1 | inconclusive [inhibitor, single point] | – |
| CCOc1ccc(N=c2scc(-c3ccccc3)n2CCO)cc1 | inconclusive [inhibitor, single point] | – |
| C=CCOC(=O)C1=C(C)NC(SCC(=O)Nc2ccccc2)=C(C#N)C1c1ccco1 (stereo unspecified) | inconclusive [inhibitor, partial curve] | – |
| CN(C)CCOCCOc1ccc(Cl)c2ccccc12 | active: 10 µM | – |
| COC(=O)Cn1c(CN(C)Cc2ccccc2)nc2c1c(=O)n(C)c(=O)n2C | – | inactive: -12.6% |
| COc1ccc(S(=O)(=O)NCCN2CCNC2=O)cc1OC | – | inactive: 7.15% |
| COc1ccc(N=Nc2c(C)n[nH]c2C)cc1 | inconclusive [inhibitor, partial curve] | – |
| Cn1c(=O)n(C)c2cc(NC(=O)COc3ccc(Cl)cc3)ccc21 | inconclusive [inhibitor, partial curve] | – |
| Cc1ccc(CS(=O)(=O)c2ncc(Cl)c(C(=O)Nc3ccc(OC(F)F)cc3)n2)cc1 | inconclusive [inhibitor, single point] | – |
| COC(=O)c1ccc(CNC(=O)Cn2nnnc2CN(C)C(C)C)cc1 | – | inactive: 0.565% |
| COc1cc(NC(=O)CSc2nc(=O)n(CCCN3CCOCC3)c3c2CCC3)cc(OC)c1 | – | inactive: -16.3% |

| SMILES | Potency | activity change, negative = inhibition |
| --- | --- | --- |
| Cc1ccc(S(=O)(=O)NC2c3cccc4cccc(c34)C2Sc2n[nH]c(N)n2)cc1 (stereo unspecified) | inconclusive [inhibitor, single point] | – |
| COc1ccc2c(c1)CCc1cnc(N)nc1-2 | inconclusive [inhibitor, full curve] | – |
| CCOc1ccccc1NC(=O)N1CCC(c2nc3ccccc3[nH]2)CC1 | inconclusive [inhibitor, partial curve, poor fit] | – |
| O=C(c1cccc(S(=O)(=O)N2CCN(c3ccc(F)cc3)CC2)c1)N1CCN(c2ccccc2O)CC1 | inconclusive [inhibitor, single point] | – |
| CCNc1nc(-c2cc(C)n(Cc3ccco3)c2C)cs1 | inconclusive [inhibitor, partial curve] | – |
| Cn1ccnc1-c1ccc(-c2nccn2C)cc1 | inconclusive [inhibitor, single point] | – |
| COc1ccccc1CCNC(=O)C1CCN(c2nnc(C)c3c(C)n(-c4ccc(C)cc4)nc23)CC1 | inconclusive [inhibitor, partial curve] | – |
| O=C(N[C@H]1CCC(=O)N([C@H](CSc2ccccc2)Cc2ccccc2)CC1)OCc1ccccc1 | inconclusive [inhibitor, single point] | – |
| CCc1sc(NC(=O)COC)nc1-c1ccccc1 | inconclusive [inhibitor, single point] | – |
| C/C(=N\NC(=O)CN(c1ccccc1)S(C)(=O)=O)c1ccccc1O | inconclusive [inhibitor, single point] | – |
| Cc1ccc(C(C(=O)NCc2ccccc2)N(Cc2cccs2)C(=O)c2ccc3c(c2)OCCO3)cc1 (stereo unspecified) | inconclusive [inhibitor, partial curve] | – |
| NN/C(=C\[N+](=O)[O-])Nc1ccc(Cl)cc1 | – | inactive: 0.759% |
| O=S(=O)(c1cccc(Br)c1)N1CCN(C(=S)NCC2CCCO2)CC1 (stereo unspecified) | – | inactive: 7.41% |
| CCOc1ccc(CCNC(=O)CCc2nnc3ccc(N4CCOCC4)nn23)cc1 | – | inactive: 7.01% |
| O=C(Nc1cccc(Br)c1)c1ccc2snnc2c1 | inconclusive [inhibitor, single point] | – |
| Cc1ccccc1NC(=S)NCc1ccco1 | inconclusive [inhibitor, single point] | – |
| N#CCCn1cc(/C=N/NC(N)=S)c(-c2ccc(Br)cc2)n1 | inconclusive [inhibitor, single point] | – |
| CC(C)OC(=O)c1c(NC(=O)CCn2nnc3ccccc32)sc2c1CCCC2 | inconclusive [inhibitor, partial curve, poor fit] | – |
| COc1ccc([N+](=O)[O-])cc1NC(=O)c1csc(C)c1 | inconclusive [inhibitor, single point] | – |
| COc1ccc(C(C)=O)cc1CSc1nnc(Nc2c(C)cccc2C)s1 | inconclusive [inhibitor, partial curve] | – |
| CC1=NN(C(=O)c2nn(C)cc2Br)C(O)(C(F)(F)F)C1 (stereo unspecified) | – | inactive: 23.9% |
| O=C(/C(=C/c1cccc(Cl)c1)c1nc2ccccc2[nH]1)c1ccccc1 | inconclusive [inhibitor, single point] | – |

From PubChem BioAssay AID651820 (National Center for Advancing Translational Sciences (NCATS), 2012)
